Results published in the supplement of paper PMC8728848.
This is one part of the list.

Tests used:
Assay in all cases: glycan array binding signal (z-score within array); higher = stronger binding
Settings in all cases: glycan notation: IUPAC condensed, linker removed
[1] = target: Gal(b1-3)GlcNAc(b1-3)Gal(b1-4)[Fuc(a1-3)]GlcNAc(b1-6)[Gal(b1-3)GlcNAc(b1-3)]Gal(b1-4)Glc
In short: (§1)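 Glycan array data came from 3228 arrays in the Consortium for Functional Glycomics database, and only arrays with an available protein sequence were kept. Glycan names were put into IUPAC-condensed notation, and columns mapping to the same glycan were averaged. The binding signal is a within-array Z-score, averaged across arrays of one protein sequence run at different concentrations or buffers and across linkers. A negative Z-score can be read as non-binding.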

[2] = target: Gal(b1-3)GlcNAc(b1-3)GalNAc
In short: as §1

[3] = target: Gal(b1-3)GlcNAc(b1-6)Gal(b1-4)GlcNAc
In short: as §1

[4] = target: Gal(b1-3)GlcNAc(b1-6)GalNAc
In short: as §1

[5] = target: Gal(b1-3)GlcNAc(b1-6)[Gal(b1-3)]GalNAc
In short: as §1

[6] = target: Gal(b1-3)GlcNAc6S
In short: as §1

[7] = target: Gal(b1-3)[Fuc(a1-4)]GlcNAc
In short: as §1

[8] = target: Gal(b1-3)[Fuc(a1-4)]GlcNAc(b1-2)Man
In short: as §1

[9] = target: Gal(b1-3)[Fuc(a1-4)]GlcNAc(b1-2)Man(a1-3)[Gal(b1-3)[Fuc(a1-4)]GlcNAc(b1-2)Man(a1-6)]Man(b1-4)GlcNAc(b1-4)[Fuc(a1-6)]GlcNAc
In short: as §1

[10] = target: Gal(b1-3)[Fuc(a1-4)]GlcNAc(b1-3)Gal(b1-3)[Fuc(a1-4)]GlcNAc
In short: as §1

[11] = target: Gal(b1-3)[Fuc(a1-4)]GlcNAc(b1-3)Gal(b1-4)GlcNAc
In short: as §1

[12] = target: Gal(b1-3)[Fuc(a1-4)]GlcNAc(b1-3)Gal(b1-4)[Fuc(a1-3)]GlcNAc
In short: as §1

[13] = target: Gal(b1-3)[Fuc(a1-4)]GlcNAc(b1-6)GalNAc
In short: as §1

[14] = target: Gal(b1-3)[GlcNAc(b1-6)]GalNAc
In short: as §1

[15] = target: Gal(b1-3)[Neu5Ac(a2-6)]GalNAc
In short: as §1

[16] = target: Gal(b1-3)[Neu5Ac(a2-6)]GlcNAc(b1-4)Gal(b1-4)Glc
In short: as §1

[17] = target: Gal(b1-3)[Neu5Ac(a2-6)]GlcNAc(b1-6)Gal(b1-4)Glc
In short: as §1

[18] = target: Gal(b1-3)[Neu5Ac(b2-6)]GalNAc
In short: as §1

[19] = target: Gal(b1-4)Gal
In short: as §1

[20] = target: Gal(b1-4)GalNAc(a1-3)[Fuc(a1-2)]Gal(b1-4)GlcNAc
In short: as §1

[21] = target: Gal(b1-4)GalNAc(b1-3)[Fuc(a1-2)]Gal(b1-4)GlcNAc
In short: as §1

[22] = target: Gal(b1-4)Glc
In short: as §1

[23] = target: Gal(b1-4)Glc6S
In short: as §1

[24] = target: Gal(b1-4)GlcNAc
In short: as §1

[25] = target: Gal(b1-4)GlcNAc(a1-6)Gal(b1-4)GlcNAc
In short: as §1

[26] = target: Gal(b1-4)GlcNAc(b1-2)Man
In short: as §1

[27] = target: Gal(b1-4)GlcNAc(b1-2)Man(a1-3)Man(b1-4)GlcNAc(b1-4)GlcNAc
In short: as §1

[28] = target: Gal(b1-4)GlcNAc(b1-2)Man(a1-3)[Gal(b1-4)GlcNAc(b1-2)Man(a1-6)]Man(b1-4)GlcNAc(b1-4)GlcNAc
In short: as §1

[29] = target: Gal(b1-4)GlcNAc(b1-2)Man(a1-3)[Gal(b1-4)GlcNAc(b1-2)Man(a1-6)]Man(b1-4)GlcNAc(b1-4)[Fuc(a1-6)]GlcNAc
In short: as §1

[30] = target: Gal(b1-4)GlcNAc(b1-2)Man(a1-3)[Gal(b1-4)GlcNAc(b1-2)Man(a1-6)][Gal(b1-4)GlcNAc(b1-4)]Man(b1-4)GlcNAc(b1-4)[Fuc(a1-6)]GlcNAc
In short: as §1

[31] = target: Gal(b1-4)GlcNAc(b1-2)Man(a1-3)[Gal(b1-4)GlcNAc(b1-2)Man(a1-6)][GlcNAc(b1-4)]Man(b1-4)GlcNAc(b1-4)[Fuc(a1-6)]GlcNAc
In short: as §1

[32] = target: Gal(b1-4)GlcNAc(b1-2)Man(a1-3)[GlcNAc(b1-2)Man(a1-6)]Man(b1-4)GlcNAc(b1-4)GlcNAc
In short: as §1

[33] = target: Gal(b1-4)GlcNAc(b1-2)Man(a1-3)[GlcNAc(b1-4)][Gal(b1-4)GlcNAc(b1-2)Man(a1-6)]Man(b1-4)GlcNAc(b1-4)GlcNAc
In short: as §1

[34] = target: Gal(b1-4)GlcNAc(b1-2)Man(a1-3)[Man(a1-6)]Man(b1-4)GlcNAc(b1-4)GlcNAc
In short: as §1

[35] = target: Gal(b1-4)GlcNAc(b1-2)Man(a1-6)Man(b1-4)GlcNAc(b1-4)GlcNAc
In short: as §1

[36] = target: Gal(b1-4)GlcNAc(b1-2)Man(a1-6)[GlcNAc(b1-2)Man(a1-3)]Man(b1-4)GlcNAc(b1-4)GlcNAc
In short: as §1

[37] = target: Gal(b1-4)GlcNAc(b1-2)Man(a1-6)[Man(a1-3)]Man(b1-4)GlcNAc(b1-4)GlcNAc
In short: as §1

B1: CSA (Cytisus scoparius), P29257 (protein)
chain: SEELSFSFTKFKTDQKNLILQRDALITPTGKLQLTTVENGKPAAYSLGRALYSTPIHIWDKSTGDEASFATFFSFVISDAPNPSTAATDGLAFFLAPADTQPQSAGGYLGLFEKDSSYNSSNQIVAVEFDTYYNSAWDPQTNPHIGIDVNTIKSKKVSSWGFKNGNVATVLITYQPSSKSLVASLVYPSGQTSDKTSYIISANVDLKATVPEWVRIGFSATTGQTDNYIETHDILSWSFKSKLPATKN
glycan array binding signal (z-score) [1]: -0.169
glycan array binding signal (z-score) [2]: -0.224
glycan array binding signal (z-score) [3]: -0.199
glycan array binding signal (z-score) [4]: -0.217
glycan array binding signal (z-score) [5]: -0.199
glycan array binding signal (z-score) [6]: -0.231
glycan array binding signal (z-score) [7]: -0.076
glycan array binding signal (z-score) [8]: -0.142
glycan array binding signal (z-score) [9]: -0.009
glycan array binding signal (z-score) [10]: -0.175
glycan array binding signal (z-score) [11]: -0.171
glycan array binding signal (z-score) [12]: -0.176
glycan array binding signal (z-score) [13]: -0.11
glycan array binding signal (z-score) [14]: -0.195
glycan array binding signal (z-score) [15]: -0.169
glycan array binding signal (z-score) [16]: -0.185
glycan array binding signal (z-score) [17]: -0.176
glycan array binding signal (z-score) [18]: -0.207
glycan array binding signal (z-score) [19]: -0.174
glycan array binding signal (z-score) [20]: -0.213
glycan array binding signal (z-score) [21]: -0.187
glycan array binding signal (z-score) [22]: -0.208
glycan array binding signal (z-score) [23]: -0.158
glycan array binding signal (z-score) [24]: -0.142
glycan array binding signal (z-score) [25]: -0.217
glycan array binding signal (z-score) [26]: -0.173
glycan array binding signal (z-score) [27]: -0.221
glycan array binding signal (z-score) [28]: 0.292
glycan array binding signal (z-score) [29]: -0.164
glycan array binding signal (z-score) [30]: 0.178
glycan array binding signal (z-score) [31]: -0.165
glycan array binding signal (z-score) [32]: -0.199
glycan array binding signal (z-score) [33]: -0.159
glycan array binding signal (z-score) [34]: -0.139
glycan array binding signal (z-score) [35]: -0.172
glycan array binding signal (z-score) [36]: -0.231
glycan array binding signal (z-score) [37]: -0.179
